# Reference: PubChem BioAssay AID1345083 (National Center for Advancing Translational Sciences (NCATS), 2018)
# The whole screen tested about 94,000 compounds, of which about 6,200 (6.6%) were called active. Inconclusive means that the source gave no clear call. Such entries were picked first, then a sample of the others. The call rests on the fitted dose curve; in most records, active means well fitted inhibition curve with a large enough effect; inconclusive means small, poorly fitted or top-dose-only effect; inactive means flat fitted curve, though single readings scatter. A potency beside an inconclusive call is a rough fit, not a confirmed value.
# Assay: Cytotoxic Profiling in HEK 293 Cell Line of Diverse Libraries Using Quantitative High-Throughput Screening; further: nearly all actives have a fitted effect of over 60% in size
# Settings: HEK 293 viability, ATP luminescence (CellTiter-Glo), 48-72 h; series mostly up to 115 µM
# Method in brief: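 HEK 293 cells seeded at 250 cells/well were exposed to compound for 48 or 72 hr at 37 degree Celsius. Viability taken as ATP content by CellTiter-Glo luminescence.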
# Potency means the concentration at half of the fitted maximal effect; tags describe the fitted curve by direction and shape.
row,Structure (SMILES),Potency
1,Cc1nn(-c2ccccc2)c2c1C(C(C)C)N(C1CCN(C(=O)Nc3ccccc3)CC1)C2=O (configuration not stated),inactive
2,O=C(c1cccc(F)c1)N1CCOC[C@H](Oc2ccc(C(F)(F)F)cc2)C1,"inconclusive: 126 µM [inhibitor, partial curve, poor fit]"
3,CNC(=O)c1noc([C@@H]2CC(F)(F)CN2C(=O)CCOC)n1,inactive
4,C[S+](=O)([O-])c1ccc(-c2cc(C(=O)NCCc3ccc(Cl)cc3)nn3cccc23)cc1,"inconclusive: 20 µM [inhibitor, full curve, poor fit]"
5,Cc1ccc(OCc2nc(C3CCCCN3C(=O)NCc3ccc(F)cc3)no2)cc1 (configuration not stated),"inconclusive: 50.1 µM [inhibitor, partial curve, poor fit]"
6,CCOC(=O)N1CCC(=O)N(CC2CC2)Cc2cc(OC)ccc21,"inconclusive: 89.1 µM [inhibitor, partial curve, poor fit]"
7,COc1cc(-c2cnc3n[nH]c(-c4ccccc4)c3n2)ccn1,"inconclusive: 100 µM [inhibitor, partial curve]"
8,COc1ccc(NC(=O)N2CCCC(Cc3noc(-c4cccnc4)n3)C2)cc1 (configuration not stated),"inconclusive: 35.5 µM [inhibitor, full curve, poor fit]"
9,Cc1noc([C@@H]2C[C@H](NC(=O)Nc3cccc(F)c3)CN2C)n1,inactive
10,Cc1nc2c(c(-c3ccc(Cl)cc3)n1)CCN(C(=O)Nc1ccc(Cl)cc1)CC2,"inconclusive: 50.1 µM [inhibitor, partial curve, poor fit]"
11,O[C@@H]1C[C@@H](c2nc(-c3ccc4c(c3)OCO4)no2)N(Cc2ccccn2)C1,"inconclusive: 100 µM [inhibitor, partial curve]"
12,Cc1ccc(C(C)NC(=O)CNC23CC4CC(CC(C4)C2)C3)cc1 (configuration not stated),"inconclusive: 39.8 µM [inhibitor, partial curve, poor fit]"
13,CNc1nc(N2CC[C@@H]3C[C@H](N4CCOCC4)CC[C@@]3(COC)C2)ncc1F,inactive
14,Cc1cccc(C(=O)Nc2cccc(C3OC(=O)N(Cc4ccccc4)C3C(=O)NCC(C)C)c2)c1 (configuration not stated),"inconclusive: 44.7 µM [inhibitor, partial curve]"
15,O=C(c1cccc(Cl)c1)N1CCN(Cc2ccccc2-c2cccnc2)CC1,"inconclusive: 31.6 µM [inhibitor, partial curve, poor fit]"
16,COc1ccc(C2(C(=O)N(C)Cc3ccc(OC(F)(F)F)cc3)CCOCC2)cc1,active: 50.1 µM
17,Cc1ccc(C(=O)N2CCC(n3cc(-c4nc(C(C)C)no4)nn3)CC2)s1,"inconclusive: 56.2 µM [inhibitor, partial curve, poor fit]"
18,CC(C)c1cccc(NC(=O)c2ccc(CN3C(=O)NC4(CCOCC4)C3=O)cc2)c1,"inconclusive: 35.5 µM [inhibitor, partial curve, poor fit]"
19,Cc1csc(NC(=O)c2nc3c(o2)CCN(Cc2ccc(C#N)cc2)CC3)n1,"inconclusive: 63.1 µM [inhibitor, partial curve, poor fit]"
20,COc1ccccc1N1CCN(C(=O)Cn2cccc2-c2nc(-c3ccc(F)cc3)no2)CC1,active: 39.8 µM
21,O=C1NCc2ccccc2CC12CCN(Cc1ccc(F)cc1F)CC2,"inconclusive: 79.4 µM [inhibitor, single point]"

row,Structure (SMILES),Potency
1,CCc1ccc(NC(=O)N2CC3CC(C2)[C@H]2CCCC(=O)N2C3)cc1 (some centres not stated),inactive
2,Cc1ccc(C(=O)N2CCN(c3cc(C(F)(F)F)ncn3)CC2)cc1F,"inconclusive: 31.6 µM [inhibitor, partial curve, poor fit]"
3,O=C(NC1CC1)[C@@H]1C[C@H](Oc2ccccc2)CN1C(=O)c1n[nH]c(=O)c2ccccc12,inactive
4,Cc1nnc2ccc(N3CCN(C(=O)c4ccc(C(F)(F)F)cc4)CC3)nn12,"inconclusive: 56.2 µM [inhibitor, partial curve, poor fit]"
5,Cc1nnc2ccc(N3CCCN([S+](C)(=O)[O-])CC3)nn12,inactive
6,CN(C)c1ccc(-c2noc([C@@H]3CCCN3CC3CCCCC3)n2)cn1,"inconclusive: 79.4 µM [inhibitor, partial curve]"
7,c1ccc2c(c1)COC1(CCNC1)CN2CC1CCCC1 (configuration not stated),active: 50.1 µM
8,COc1ccc(C(=O)N[C@H]2CC[C@]3(C)CCC([C@H](C)C(=O)NCc4ccccc4)[C@H](O)[C@H]3[C@@H]2C)cc1 (some centres not stated),"inconclusive: 79.4 µM [inhibitor, single point]"
9,COc1cc(F)ccc1-c1cnc2n[nH]c(-c3sccc3C)c2n1,active: 44.7 µM
10,COc1ccccc1-c1cc(C(=O)N(C)C)nn2cnnc12,inactive
11,COc1cccc(C(=O)N2CCOc3ccc(CN4CCc5ccccc5C4)cc3C2)c1,active: 44.7 µM
12,CCN1c2cc(C(=O)Nc3ccc(OC)cc3)ccc2C(=O)N2CCCC21 (configuration not stated),inactive
13,COc1cccc(CN2CCOc3ccc(C(=O)NCc4ccc(C)cc4)cc3C2)c1,"inconclusive: 50.1 µM [inhibitor, partial curve, poor fit]"
14,Cc1cccc(-c2ocnc2C(=O)N2CCC3(CCC(=O)N(CC4CC4)CC3)CC2)c1,"inconclusive: 44.7 µM [inhibitor, partial curve]"
15,CCCNC(=O)N1CC(C(=O)N(C)C)C2(CCOCC2)C1 (configuration not stated),inactive
16,COc1ccc(Nc2ccnc(N3CCCC(C(=O)NCC(F)F)C3)n2)cc1 (configuration not stated),"inconclusive: 50.1 µM [inhibitor, partial curve, poor fit]"
17,CCOCC(=O)N1CCCC(c2nc(-c3ccccc3)no2)CCNC(=O)CC1 (configuration not stated),"inconclusive: 89.1 µM [inhibitor, single point]"
18,COc1ccccc1Nc1ncc2c(n1)CN(C(=O)c1cccc(C#N)c1)CCN2,active: 79.4 µM
19,CN1CCC(N[C@H]2C[C@@H](Cc3cc(-c4ccccc4)on3)C2(C)C)CC1,active: 8.91 µM
20,Cc1cnc(CC2CCN(C(=O)C3CCC3)C2)n1Cc1ccccc1 (configuration not stated),inactive
21,CCOc1ccccc1NC(=O)Cn1c(-c2ccc(F)cc2)nc(C)c(CCO)c1=O,"inconclusive: 31.6 µM [inhibitor, full curve, poor fit]"
